219 sequences from PMC6212790 can be followed below.

Some of the results follow. At the low end of the ranking, values are background and their order means little.

In this experiment the target is T1, GST-Rok-C97-191 (UniProt O34857).
T1 sequence: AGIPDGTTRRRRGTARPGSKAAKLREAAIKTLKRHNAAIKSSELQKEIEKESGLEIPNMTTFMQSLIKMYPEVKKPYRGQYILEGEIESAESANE
Briefly: protein binding microarray.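 Further: rank score from −0.5 (least bound) to 0.5 (best bound).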 The conditions noted are these: Rok is a gene silencer of Bacillus subtilis; high values mean tight binding; most listed sequences are background and not binding sites; double strand, one strand shown.
The sequence AGACGTGG returned a binding signal of -0.228 E-score. The same measure for ACTGCGGA: -0.107 E-score; for GCCTTAGC: -0.184 E-score; for CCTTGAGA: -0.0382 E-score.

In the case of GCGCCAAA, the binding signal was -0.125 E-score. The same measure for GCTACAAA: 0.204 E-score; for CGAGCAAG: -0.0658 E-score; for TAGGTACA: 0.0903 E-score. The same measure for ACTCAGAG: -0.044 E-score; for ACCCTCGT: -0.204 E-score. Then GGCTGCAA, with -0.284 E-score; and CGACTCCG, with -0.21 E-score; and TCCGGCGA, with -0.0879 E-score. With CTGGGCAA, the binding signal is -0.156 E-score. The sequence CGAAAGTC registered a binding signal of -0.117 E-score. Then CCTAGGCA, with -0.198 E-score; and AACAGTGG, with 0.102 E-score. As for CCAGCTAG, the binding signal is 0.0626 E-score.

Take CGAGGGTA: the binding signal is -0.163 E-score.

In the case of TAGTTGGA, the binding signal was 0.0403 E-score. As to AGGGACCC, the binding signal is -0.173 E-score. The sequence CGACAGCG showed a binding signal of -0.188 E-score. Turning to CTGAAGGA, the binding signal was -0.156 E-score. The sequence AGTGTAGC yielded a binding signal of 0.0633 E-score. Then GACGCGAC, with -0.178 E-score.

Sequence GTATAAAC returned a binding signal of 0.137 E-score. The same measure for ACTCCGAG: -0.0711 E-score. As for CAGACTTC, the binding signal worked out at 0.0764 E-score.

AATTGGCG gave a binding signal of 0.135 E-score.

Turning to CGTACATA, the binding signal worked out at 0.168 E-score.

For the sequence ATTGCTGC, the binding signal was -0.0275 E-score. Then CATAAGCA, with 0.027 E-score; and ACATAATG, with 0.181 E-score.

As for ACGACACT, the binding signal turned out to be 0.0814 E-score. Sequence CTCCAGAA gave a binding signal of -0.0556 E-score. Then TCGTCCAA, with -0.0486 E-score; and CAACCGTC, with -0.011 E-score.

CAAATTAC displayed a binding signal of 0.33 E-score. The same measure for AGTGTCCG: -0.0702 E-score; for ACTACGCC: 0.000472 E-score; for AGTGTTGC: 0.13 E-score. In turn, GCGGCTTA displayed a binding signal of -0.211 E-score.

Sequence CCCATCAG came in with a binding signal of -0.143 E-score.

Sequence CTACCGTA registered a binding signal of 0.26 E-score. Turning to CCGCTGCC, the binding signal was -0.289 E-score. With ATACCGTC, the binding signal worked out at 0.0617 E-score. Sequence AGAGAACG registered a binding signal of 0.0501 E-score.

On to AGTTGAGG, for which the binding signal is 0.0783 E-score.

For the sequence AACCCTCT, the binding signal is -0.204 E-score.

The sequence ATCGCTGA yielded a binding signal of 0.072 E-score. CCAAGAGC yielded a binding signal of -0.226 E-score. Sequence AACGAGAG showed a binding signal of -0.0985 E-score. The same measure for ACCAATGC: -0.0387 E-score.

GAGTGCTA yielded a binding signal of 0.173 E-score.

In turn, AAGCAACC displayed a binding signal of -0.189 E-score. Take TCCTTTCA: the binding signal is -0.0519 E-score.

With GCGACGCC, the binding signal is -0.28 E-score. As for ACTGTCAG, the binding signal is -0.0551 E-score.

Consider AATCGCAT, for which the binding signal is -0.00152 E-score. GAACGCAA registered a binding signal of -0.0522 E-score.

Take CCAATGTA: the binding signal was 0.181 E-score. Then CGTTCCAC, with -0.113 E-score; and GAGAGCGC, with -0.329 E-score; and CGGAATGC, with -0.0907 E-score. Take AATGACGA: the binding signal is -0.0116 E-score. The same measure for AACCTCCT: -0.0841 E-score; for CCCCCAAA: -0.34 E-score. The same measure for AATCTTCT: 0.132 E-score; for GAGTAACC: -0.0845 E-score. GTCAGTGA returned a binding signal of -0.128 E-score. GGTAACAC returned a binding signal of 0.0899 E-score. As to CTTTGGTC, the binding signal is -0.0609 E-score. Then CCGCCACA, with -0.208 E-score; and TCAGCTCA, with -0.0912 E-score. The same measure for CGACAAGC: -0.172 E-score; for ATTGTATA: 0.317 E-score; for GTTAGATA: 0.321 E-score. AGACGTGA returned a binding signal of -0.0265 E-score. As to ACGGCGCC, the binding signal was -0.222 E-score. The same measure for CCTAATAC: 0.14 E-score. On to TTCTTAAA, for which the binding signal worked out at 0.0754 E-score. ATCTGGCC: the binding signal was -0.14 E-score. Then ACCACCCT, with -0.0961 E-score; and AGCGGTTC, with -0.199 E-score. The same measure for AGCCAACG: -0.273 E-score.

ATTCAAGC: the binding signal is -0.00937 E-score. As to ACACCCCT, the binding signal was -0.293 E-score.

With TTAGCGAA, the binding signal stood at 0.0761 E-score. With ATATAAGG, the binding signal amounted to 0.0383 E-score.

GAAGCGGC displayed a binding signal of -0.333 E-score.

With AATGAAAT, the binding signal stood at 0.184 E-score. The same measure for GTCGGCAC: -0.245 E-score; for GGGTTGAC: -0.2 E-score; for TCATGGAA: -0.0558 E-score. Then ACAACCAT, with -0.0136 E-score; and ATGCCCTA, with -0.00598 E-score; and TGTTTTAA, with 0.115 E-score. The same measure for GAGACAGC: -0.226 E-score. CCCTTAAG came in with a binding signal of -0.126 E-score. ATGAAGCA had a binding signal of -0.0894 E-score. Then CCACATTC, with -0.116 E-score; and AGAAGATA, with 0.193 E-score.

GCCACCCC gave a binding signal of -0.177 E-score. The same measure for ACAACGGA: 0.0579 E-score; for GCCGTCGA: -0.143 E-score. The same measure for GGGGGACC: -0.34 E-score.

On to AGCCCTTA, for which the binding signal is -0.145 E-score.

CCCATAGG had a binding signal of -0.303 E-score. The same measure for TAATTCTA: 0.331 E-score; for GATGGTCC: -0.146 E-score. The same measure for AACAGAGT: 0.00928 E-score; for CCATCGCG: -0.0149 E-score. With TGCCAGAA, the binding signal was -0.053 E-score.

As to AGCTTCTA, the binding signal was 0.2 E-score. The same measure for GTCCTTAA: 0.0686 E-score. With CGAAAACC, the binding signal is -0.125 E-score. The same measure for ACAACAGC: -0.154 E-score; for AAATTGAG: 0.0287 E-score; for GATTAAAA: 0.109 E-score. Sequence ACTGGGGG registered a binding signal of -0.151 E-score. Then AGTGCATG, with -0.193 E-score; and CTGACATC, with -0.162 E-score. The sequence ACCAAACG displayed a binding signal of -0.0311 E-score. Then CTGCCAAG, with -0.104 E-score. Then CTAAAATA, with 0.295 E-score; and GGACGAAC, with -0.138 E-score. The same measure for ATACGGAG: 0.165 E-score; for ATCTATAC: 0.26 E-score. The sequence GACCACCC yielded a binding signal of -0.321 E-score. For GCCTTGCC, the binding signal is -0.299 E-score.

ACCATAAA displayed a binding signal of 0.249 E-score. CTCGCGCC gave a binding signal of -0.231 E-score. Then ACGATGAG, with -0.054 E-score; and CACTACTG, with 0.0489 E-score; and CAGACGGC, with 0.0544 E-score. The same measure for GAGAAAGC: 0.000166 E-score. ATTAAATG had a binding signal of 0.093 E-score. As to TGCACACA, the binding signal turned out to be 0.00321 E-score. The same measure for CCGAGGCG: -0.183 E-score. CACTCGGG: the binding signal was -0.143 E-score. Regarding AATCAGAA, the binding signal came to 0.0565 E-score. The sequence AAACTGGG came in with a binding signal of -0.197 E-score. As for CCATCGGG, the binding signal was -0.172 E-score. With GCAGCCAC, the binding signal was -0.313 E-score. Sequence AATTAGGA had a binding signal of 0.185 E-score. The same measure for CAGACACC: 0.0685 E-score; for GCCAAAGC: -0.308 E-score. Take AGACTGGA: the binding signal was -0.197 E-score. In turn, ATGTCGGG registered a binding signal of -0.0643 E-score. Then CAACTACA, with 0.234 E-score; and GCTAATCC, with -0.0789 E-score.

For the sequence CCGCACCA, the binding signal is -0.123 E-score. Then ACAACTCC, with -0.0564 E-score; and GGAGCAAC, with -0.102 E-score; and TACGGAGA, with 0.127 E-score. As for AGAGCATA, the binding signal was -0.189 E-score.

CATTCAGC gave a binding signal of -0.21 E-score. The same measure for ATGCGGCA: -0.0172 E-score; for CTTACAGA: 0.0483 E-score. The same measure for CTGGGGAA: -0.122 E-score; for ATTCCTCA: 0.0114 E-score; for AAGTGTTC: -0.00454 E-score. The same measure for ATATAGAT: 0.399 E-score; for CAGCATGC: -0.087 E-score. Consider CATAGTGA, for which the binding signal was 0.0448 E-score. CCCCCCTA registered a binding signal of -0.227 E-score. Sequence ACTTACTG came in with a binding signal of 0.244 E-score. The same measure for GCGACATA: 0.0144 E-score. Then GCAGAGCA, with -0.181 E-score.

In turn, AGAATTGA displayed a binding signal of 0.0635 E-score. Then CTGCATTA, with 0.17 E-score; and AGGAACTA, with 0.115 E-score; and ATGCGCAT, with 0.0578 E-score.

In turn, TAGCAAGA had a binding signal of 0.155 E-score.

The sequence CCGCCCCA returned a binding signal of -0.269 E-score. Then AAGGTCCT, with -0.181 E-score; and GTCTATTA, with 0.0713 E-score. The same measure for ACGACGCT: -0.276 E-score; for ATATTTCG: 0.238 E-score; for CTAGCAAA: 0.181 E-score. For GGTGCATA, the binding signal stood at 0.236 E-score.

With AACACGGC, the binding signal is -0.0807 E-score. Then CGTCATTA, with -0.0417 E-score; and CGGGCCTA, with -0.196 E-score. The same measure for ATCGTAAA: 0.143 E-score; for AAAGATAC: 0.0421 E-score; for GTACGCAC: -0.0335 E-score. The same measure for ACTATTAG: 0.263 E-score; for GCAAGAAC: 0.0107 E-score; for ATGAAAAC: 0.021 E-score.

As to AGACTGCC, the binding signal was -0.228 E-score. Then AGTATACA, with 0.178 E-score; and CGTTCAAA, with -0.0762 E-score. Then ACTAGCAT, with 0.142 E-score; and CGCCTTGA, with -0.172 E-score; and AGATAGCT, with 0.261 E-score. AAACTAAA: the binding signal amounted to 0.296 E-score. In turn, CGAGCTAA had a binding signal of 0.00487 E-score. In turn, CGACGCGC registered a binding signal of -0.24 E-score. The same measure for AAGATTGC: -0.0164 E-score; for GCCCTGGA: -0.158 E-score. Then GGAGGTAA, with 0.021 E-score. ATCACAAT gave a binding signal of 0.199 E-score. Then ACCTAGAT, with 0.144 E-score; and GGACAGCA, with 0.00345 E-score. For GCCAACCA, the binding signal is -0.241 E-score. Sequence ATCTACAT showed a binding signal of 0.342 E-score. Then GCTCACAA, with -0.0941 E-score; and ATCAGCGC, with -0.0644 E-score; and ACGTTTTG, with -0.0255 E-score.

In turn, CATTGTTC came in with a binding signal of -0.0411 E-score.

AAGGAAAT gave a binding signal of -0.000157 E-score. Then GCACACCA, with -0.0574 E-score; and GCAAACAA, with -0.173 E-score. On to AGGCGTCG, for which the binding signal was -0.126 E-score. The sequence ACACAGAC yielded a binding signal of -0.211 E-score. The same measure for TGGTCACA: -0.22 E-score. Then ATGCCATA, with 0.081 E-score; and TCAGGACA, with -0.209 E-score.
